According to PubChem BioAssay AID686978 (National Center for Advancing Translational Sciences (NCATS), 2013):
The whole screen tested about 420,000 compounds, of which about 64,000 (15%) were called active. The shares of active, inactive and inconclusive entries below differ from those in the screen. Calls come from the whole dose curve; as a rule, active = well fitted inhibition curve with a large enough effect; inconclusive = small, poorly fitted or top-dose-only effect; inactive = flat fitted curve, though single readings scatter. Potencies of inconclusive entries are left out as doubtful fits.

assay: qHTS for Inhibitors of human tyrosyl-DNA phosphodiesterase 1 (TDP1): qHTS in cells in absence of CPT; conditions: DT40 Tdp1-/- hTDP1 cells, no CPT, ATP luminescence, 48 h; activity change, negative = growth inhibition: at 46.2 µM (top of the series) unless noted; note: nearly all actives have a fitted effect of over 55% in size
Method in brief: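 Luminescent ATP content (CellTiter-Glo) served as the growth readout. Knockout chicken DT40 cells expressing human TDP1 were exposed to compounds without camptothecin for a minimum 48 hr at 37 °C.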
% is set by controls: 0 for no effect and ±100 for the full control effect; potency is the fitted concentration of half-maximal effect; tags give direction and shape of the fitted curve.

SMILES | Potency | activity change, negative = growth inhibition
CCOC(=O)C1=C(CN2CCN(c3ccc(OC)cc3)CC2)NC(=O)NC1c1ccc(Cl)cc1 (stereo not drawn) | active: 14.6 µM | –
Cc1cc(CN2CCN(c3cccc(C)c3C)CC2)cs1 | active: 14.6 µM | –
FC(F)(F)c1nc(NCc2ccccc2)c2nnn(Cc3ccccc3)c2n1 | inconclusive [inhibitor, single point] | –
COc1ccc(/C=C/C(=O)Nc2ccc(C)c(S(=O)(=O)N3CCOCC3)c2)cc1 | active: 18.4 µM | –
Cc1cc(C(=O)NCCC(c2ccccc2)c2ccccc2)c(C)o1 | inconclusive [inhibitor, single point] | –
CC1CCC(C(O)(C(=O)O)C2CCCCC2)CC1C (stereo not drawn) | – | inactive: -3.85%
COc1ccc(CCNC(=O)Cc2ccc(NS(=O)(=O)c3ccc(F)cc3)cc2)cc1OC | – | inactive: -15.2%
CCCCN1C(=O)C(CC(=O)NCCc2ccccn2)CC(C(=O)N2CCOCC2)=C1C (stereo not drawn) | – | inactive: 0.715%
C[C@@H](C(=O)N1CCN(C(=O)OC(C)(C)C)CC1)n1cc(CCCN=C(NC(=O)OC(C)(C)C)NC(=O)OC(C)(C)C)nn1 | inconclusive [inhibitor, single point] | –
CCSc1ncc(Cl)c(C(=O)Nc2sc3c(c2C(=O)NCc2cccnc2)CCCC3)n1 | inconclusive [inhibitor, partial curve] | –
O=C(Nc1cccc(C(F)(F)F)c1)c1cc2nc(-c3ccc4c(c3)OCO4)cc(C(F)(F)F)n2n1 | – | inactive: -3.81%
COc1ccc(-c2nc3ccccc3o2)cc1NC(=O)c1ccc(Br)o1 | inconclusive [inhibitor, single point] | –
COc1ccccc1C(=O)NCCN1CCC(n2c(=O)[nH]c3ccccc32)CC1 | inconclusive [inhibitor, partial curve] | –
CC/C(=C\c1ccccc1)c1cccc2oc3ccccc3c12 | inconclusive [inhibitor, single point] | –
O=[N+]([O-])c1ccc2nc(Cl)nc(-c3ccccc3)c2c1 | active: 7.31 µM | –
COC(=O)[C@]12CCCCC=C1N(Cc1ccc3c(c1)OCO3)C(=O)[C@H](CC(=O)NCc1cccs1)C2 | inconclusive [inhibitor, single point] | –
O=C(COc1ccc2c(c1)OCO2)Nc1nncs1 | – | inactive: -12.6%
NCCc1nc2cccnc2n1-c1ccccc1 | – | inactive: -5.1%
CCCNC(=O)c1ccccc1NC(=O)c1ccc2c(c1)NC(=O)C(C)S2 (stereo not drawn) | active: 6.51 µM | –
CCN1CCCC1CNCc1cccc(OC)c1OCc1ccc(F)cc1 (stereo not drawn) | inconclusive [inhibitor, single point] | –
Cc1ccc(-c2nc(CSc3nncn4c3cc3occc34)c(C)o2)cc1 | – | inactive: -29.8%
O=C(c1ccc(Cl)c([N+](=O)[O-])c1)N(Cc1ccccc1)C1CCS(=O)(=O)C1 (stereo not drawn) | inconclusive [inhibitor, partial curve, poor fit] | –
COc1ccc(C)cc1NC(=O)N1CC(C)Sc2ccccc21 (stereo not drawn) | inconclusive [inhibitor, single point] | –
CC(=O)C1=C(C)OC(N)=C(C#N)C1c1cc([N+](=O)[O-])ccc1Cl (stereo not drawn) | active: 3.66 µM | –
O=C(CSCc1ccc(C(=O)O)cc1)Nc1ccc2ccccc2c1 | – | inactive: 20.7%

SMILES | Potency | activity change, negative = growth inhibition
Cc1ccc(Cn2cc(C(=O)c3ccc4c(c3)OCO4)c(=O)c3cc(C)ccc32)cc1 | active: 23.1 µM | –
CNC(=O)C1Cc2c(-c3ccc(Cl)cc3)ccnc2O1 (stereo not drawn) | inconclusive [inhibitor, single point] | –
Cc1ccc(-n2ncc3c2CCCC3NC(=O)c2ccccc2N2CCOCC2)cc1C (stereo not drawn) | inconclusive [inhibitor, single point] | –
CCn1cc(C(=O)NN)c(=O)c2cc(F)c(N3CCOCC3)cc21 | – | inactive: -28.5%
CCSC1=C(C#N)C2(CCCCC2)C(C#N)=C(N)N1 | inconclusive [inhibitor, single point] | –
COCCCNc1nc2ccccc2[nH]c1=O | – | inactive: 20.3%
CCOC(=O)CNc1ncnc2nc[nH]c12 | – | inactive: -4.59%
O=C(CCS(=O)(=O)c1ccc(Br)cc1)Nc1ccc2c(c1)OCO2 | inconclusive [inhibitor, partial curve] | –
Cc1c(Cl)cccc1NC(=O)C1CCCN(c2ncnc3onc(C)c23)C1 (stereo not drawn) | active: 6.51 µM | –
O=S(=O)(c1ccc(F)cc1)c1nc(-c2ccccc2)oc1N1CCOCC1 | – | inactive: -22.6%
COc1ccc(CCNC(=O)CN2CCN(c3cccc(C(F)(F)F)c3)CC2)cc1 | inconclusive [inhibitor, single point] | –
Cc1ccc(S(=O)(=O)NCCC(=O)NCc2ccccc2)cc1 | – | inactive: -13%
Cc1ccc2oc(C(=O)Nc3cc(C)on3)c(C)c2c1 | active: 5.8 µM | –
CC(C)CSc1nc2c(c(=O)[nH]c(=O)n2C)n1CC(O)COc1cccc2ccccc12 (stereo not drawn) | inconclusive [inhibitor, single point] | –
CCOC(=O)N1CCC(NC(=O)c2cnn(-c3cccc(F)c3)c2-n2cccc2)CC1 | active: 18.4 µM | –
Cc1ccc(CN2CCN(Cc3cc4ccccc4o3)CC2CCO)cc1 (stereo not drawn) | inconclusive [inhibitor, single point] | –
O=C(CSc1nc(-c2ccco2)cc(C(F)(F)F)n1)Nc1ccc2c(c1)OCO2 | inconclusive [inhibitor, single point] | –
O=C(COC(=O)c1ccccc1OCc1ccccc1Cl)NCC1CCCO1 (stereo not drawn) | inconclusive [inhibitor, single point] | –
Cc1ccc(S(=O)(=O)N2CCN(C(=O)Cc3ccc(S(=O)(=O)N4CCOCC4)s3)CC2)cc1 | – | inactive: -19.2%
CCC(CO)Oc1cc(NCc2cc(C)cc(C)c2)c2ncn(C(C)C)c2c1 (stereo not drawn) | inconclusive [inhibitor, single point] | –
O=C(OCc1nnc(-c2ccccc2)o1)c1cc(S(=O)(=O)N2CCOCC2)ccc1F | – | inactive: 0.676%
O=C(O)c1ccccc1C(=O)NC1CCCCNC1=O (stereo not drawn) | – | inactive: -7%
O=C(COc1ccc2ccc(=O)oc2c1)N1CCN(c2ccccc2)CC1 | inconclusive [inhibitor, single point] | –
CCc1ccc(/C=C2\SC(=S)N(CCCC(=O)NCCCN3CCOCC3)C2=O)cc1 | inconclusive [inhibitor, single point] | –
O=C(CN1C(=O)COc2ccccc21)N1CCc2ccccc2C1 | – | inconclusive: -32.6% [inhibitor]

SMILES | Potency | activity change, negative = growth inhibition
CCOC(=O)C1=NN(c2ccc(Cl)cc2)C(c2ccccc2)CC1=O (stereo not drawn) | inconclusive [inhibitor, single point] | –
Cc1ccc(NC(=O)C(c2ccccc2)C2CCCC2)cc1 (stereo not drawn) | inconclusive [inhibitor, single point] | –
O=C(NCc1ccccc1Cl)c1ccc2c(c1)N(Cc1ccccc1)C(=O)CS2 | inconclusive [inhibitor, single point] | –
N#Cc1ccc(CN2CCCC3(CCNCC3)C2)cc1 | inconclusive [inhibitor, partial curve, poor fit] | –
O=c1cc(CSc2ccc(Cl)cc2)nc(N2CCCCC2)[nH]1 | – | inconclusive: -30.4% [inhibitor]
CCCCc1c(C)nc2ccc(Br)cc2c1SC(N)N | – | inactive: 2.76%
NS(=O)(=O)c1ccc(CCNc2ncnc3c2cnn3-c2cccc(Cl)c2)cc1 | inconclusive [inhibitor, single point] | –
CCOc1cc(CN2CCC(N3CCC(C(=O)NC4CC4)CC3)CC2)ccc1O | inconclusive [inhibitor, single point] | –
Cc1ccc(Sc2ncccc2COC(=O)NC(C)C)cc1 | inconclusive [inhibitor, single point] | –
COc1ccc(NC(=O)CC(c2ccco2)C(C)C)cc1 (stereo not drawn) | inconclusive [inhibitor, partial curve, poor fit] | –
CC(NC(=S)Nc1ccc(OC(F)F)cc1OC(F)F)C(C)(C)C (stereo not drawn) | inconclusive [inhibitor, single point] | –
COC(=O)CNc1nc(Cl)nc(Nc2ccc(Cl)cc2)n1 | – | inactive: -1.09%
Cn1c(=O)c2c(nc(CCc3ccccc3)n2C)n(C)c1=O | – | inactive: -18.8%
CCC(C)c1ccccc1NC(=O)CN(C)CCOc1ccc(Cl)cc1 (stereo not drawn) | active: 23.1 µM | –
C/C=C/C(=O)N[C@@H]1c2ccccc2CC[C@@H]1OCc1ccccc1 | – | inactive: -14.8%
CCCCCOC(=O)Nc1nnc(CCCCC)s1 | inconclusive [inhibitor, single point] | –
COc1ccc(CCC(=O)NCc2nc3cccnc3n2Cc2ccc(F)cc2)cc1 | inconclusive [inhibitor, single point] | –
CN(CC(=O)Nc1ccccc1F)S(=O)(=O)c1ccc2c(c1)c(=O)n(C)c(=O)n2C | inconclusive [inhibitor, single point] | –
CCN1C(=O)c2cccc3c(S(=O)(=O)NCc4ccccc4)ccc1c23 | inconclusive [inhibitor, partial curve, poor fit] | –
CC(=O)N1CCN(Cc2nc(-c3cccc(Cl)c3)no2)CC1 | inconclusive [inhibitor, partial curve] | –
CC1CCN(S(=O)(=O)c2ccc3c(c2)c(=O)c(C(=O)NC(C)c2ccccc2)cn3C)CC1 (stereo not drawn) | active: 23.1 µM | –
CC(O)(c1ccc(F)c(F)c1)c1nc(-c2ccc(F)c(Cl)c2)cs1 (stereo not drawn) | inconclusive [inhibitor, single point] | –
CCOC(=O)c1sc2nc(CSc3ccccc3Cl)[nH]c(=O)c2c1C | inconclusive [inhibitor, partial curve, poor fit] | –
